Our source for the percent of total lymphocyte-gated cells that are CD8+ tetramer+ and percent of total lymphocyte-gated cells that are tetramer^high values is patent publication US20200101148A1.

For this assay, the target named is PE-conjugated HLA-A*0201 … tetramer (human). The experiment in a line: flow cytometry, tetramer and anti-CD8 staining of peptide-stimulated PBMC culture. On the technique in general: A flow cytometer gives signals particle by particle.

Take “CD8+ T-cells induced from HLA-A*0201 donor-derived PBMCs with the H3.3.K27M (26-35) peptide”: the percent of total lymphocyte-gated cells that are CD8+ tetramer+ is 64.1% and the percent of total lymphocyte-gated cells that are tetramer^high was found to be 2.4%.
